# The supplement of paper PMC8813932
# Where a name gives a salt, the structure may show the parent alone. ± gives the standard deviation of the averaged measurements. Some of the results follow. Repeats are few or missing, and single values can be far off.
# Experiments:
# Test in all cases: log2 surviving fraction relative to plate median (drug vs vehicle, or drug+dl922-947 vs dl922-947 alone); ovarian cancer lines: OVCAR4 is platinum-sensitive while Ov4Cis resists cisplatin and Ov4Carbo carboplatin; higher = more cell survival
# Conditions in all cases: compound concentration: 10 uM, 192 h
# [1] = tested on: OVCAR4
# [2] = tested on: Ov4Carbo
# [3] = tested on: Ov4Cis
# [4] = dl922-947 oncolytic adenovirus co-treatment: MOI 10
# [5] = dl922-947 oncolytic adenovirus co-treatment: none
Structure (SMILES),"log2 surviving fraction [1, 4]","log2 surviving fraction [1, 5]","log2 surviving fraction [2, 4]","log2 surviving fraction [2, 5]","log2 surviving fraction [3, 4]","log2 surviving fraction [3, 5]"
C[N+](C)(C)CCOC(N)=O [Carbachol],0.141 ± 1,-0.408 ± 0.11,0.319,0.72,0.362,-0.386
Oc1ccc(/C=C/c2cc(O)cc(O)c2)cc1 [Resveratrol],-2.15 ± 0.47,-2.32 ± 0.28,-1.43,-2.86,-3.04,-2.76
CC(C)(S)[C@@H](N)C(=O)O [Penicillamine (Cuprimine)],0.394 ± 0.17,0.626 ± 0.12,0.462,-1.35,0.399,0.223
CN1CC2c3ccccc3Oc3ccc(Cl)cc3C2C1 (stereo unspecified) [Asenapine],-0.803 ± 0.98,-3.52 ± 4,-2.63,1.01,-1.21,-0.0209
CC(=O)Nc1ccccc1 [Acetanilide (Antifebrin)],-0.0651 ± 0.34,-0.848 ± 1.8,-0.401,-0.0226,-0.689,0.593
Nc1nc(N)nc(NC2CC2)n1 [Cyromazine],0.301 ± 0.13,0.26 ± 0.38,0.448,0.649,0.191,0.578
CCCCc1oc2ccc(NS(C)(=O)=O)cc2c1C(=O)c1ccc(OCCCN(CCCC)CCCC)cc1 [Dronedarone HCl (Multaq)],-8.69 ± 0.11,-9.61 ± 4.5,-7.53,-10.7,-8.16,-12.8
COC(=O)Nc1nc2cc(C(=O)c3ccc(F)cc3)ccc2[nH]1 [Flubendazole (Flutelmium)],-2.46 ± 1.4,-3.17 ± 0.88,-1.89,0.227,-2.88,-4.25
O=C1CCc2cc(OCCCCc3nnnn3C3CCCCC3)ccc2N1 [Cilostazol],-0.0724 ± 0.47,0.172 ± 0.098,-0.293,0.0519,-0.417,0.00792
NS(=O)(=O)c1cc2c(cc1Cl)N=C(CSCc1ccccc1)NS2(=O)=O [Benzthiazide],0.316 ± 0.6,0.344 ± 0.43,0.664,0.213,0.0924,0.707
COc1ccc2[nH]c([S@@+]([O-])Cc3ncc(C)c(OC)c3C)nc2c1 [Esomeprazole sodium (Nexium)],-0.492 ± 0.13,-0.313 ± 0.41,-0.408,0.0625,-0.675,-0.571
CNC(=O)Oc1ccc2c(c1)[C@]1(C)CCN(C)[C@@H]1N2C [Physostigmine Hemisulfate Salt],-0.363 ± 0.52,-0.17 ± 0.26,0.688,1.54,-0.696,0.478
CC(=O)OCC(=O)[C@@]1(O)[C@H](C)C[C@H]2[C@@H]3CCC4=CC(=O)C=C[C@]4(C)[C@@]3(F)[C@@H](O)C[C@@]21C [Dexamethasone acetate],2.29 ± 1.5,-0.392 ± 1.6,1.34,1.8,1.54,-2.59
CN(c1nccc(=O)[nH]1)C1CCN(c2nc3ccccc3n2Cc2ccc(F)cc2)CC1 [Mizolastine (Mizollen)],0.491 ± 0.89,0.263 ± 0.78,-0.0538,-0.654,-0.434,-0.362
Cn1nnc2c(C(N)=O)ncn2c1=O [Methazolastone],0.366 ± 0.23,2.98 ± 3.5,2.2,0.393,0.723,0.564
CC(=O)OCC1=C(C(=O)O)N2C(=O)[C@@H](NC(=O)CSc3ccncc3)[C@H]2SC1 [Cephapirin Sodium],0.0796 ± 0.3,0.117 ± 0.14,-0.176,-0.513,-0.318,0.205
CN(C)CCCN1c2ccccc2CCc2ccccc21 [Imipramine HCl],-1.26 ± 1.6,0.266 ± 0.67,-3.09,-2.43,-1.43,-0.632
Cc1ccc(Nc2nccc(N(C)c3ccc4c(C)n(C)nc4c3)n2)cc1S(N)(=O)=O [Pazopanib HCl],-0.227 ± 0.99,-0.836 ± 0.73,-1.51,-3.43,-0.761,-1.44
C[C@@H]1C[C@H]2[C@@H]3C[C@H](F)C4=CC(=O)C=C[C@]4(C)[C@@]3(F)[C@@H](O)C[C@]2(C)[C@@]1(O)C(=O)CO [Flumethasone],1 ± 0.62,-0.22 ± 0.08,1.82,-0.786,1.68,-1.1
CCOC(=O)n1ccn(C)c1=S [Carbimazole],0.169 ± 0.68,-0.522 ± 0.4,-0.525,-0.626,-0.378,-0.221
C=C1c2c(Cl)ccc(O)c2C(=O)C2=C(O)[C@]3(O)C(=O)C(C(N)=O)=C(O)[C@@H](N(C)C)[C@@H]3[C@@H](O)[C@H]12.O=C(O)c1cc(S(=O)(=O)O)ccc1O [Meclocycline Sulfosalicylate],0.878 ± 0.2,0.0839 ± 0.49,-0.00223,-2.1,0.601,-0.0836
COc1c(N2CCNC(C)C2)c(F)cc2c(=O)c(C(=O)O)cn(C3CC3)c12 (stereo unspecified) [Gatifloxacin],-0.621 ± 0.27,-0.705 ± 0.97,-0.518,-0.166,-1.14,-0.497
CN1CCC(OC(c2ccccc2)c2ccccc2)CC1 [Diphenylpyraline HCl],-0.776 ± 0.21,0.143 ± 0.044,-0.513,-0.293,0.371,0.442

Structure (SMILES),"log2 surviving fraction [1, 4]","log2 surviving fraction [1, 5]","log2 surviving fraction [2, 4]","log2 surviving fraction [2, 5]","log2 surviving fraction [3, 4]","log2 surviving fraction [3, 5]"
"CN1CCN2c3ncccc3Cc3ccccc3C2C1 (stereo unspecified) [Mirtazapine (Remeron, Avanza)]",0.0185 ± 0.56,-0.308 ± 0.047,0.97,0.151,0.366,-0.339
OC[C@@H](O)[C@@H](O)[C@H](O)[C@H](O)CO [D-Mannitol (Osmitrol)],-0.108 ± 0.64,0.652 ± 0.3,0.133,0.415,0.741,0.0351
"CC(C)OC(=O)C(C)(C)Oc1ccc(C(=O)c2ccc(Cl)cc2)cc1 [Fenofibrate (Tricor, Trilipix)]",1.31 ± 0.47,0.314 ± 1.2,0.74,0.966,-0.143,1.51
CC(=O)O[C@@]12CO[C@@H]1C[C@@H](O)[C@@]1(C)C(=O)[C@H](O)C3=C(C)[C@@H](O)C[C@@](O)([C@@H](OC(=O)c4ccccc4)[C@H]21)C3(C)C [10-DAB (10-Deacetylbaccatin)],-5.08 ± 0.74,-6.98 ± 3.7,-1.7,-5.96,-3.23,-4.82
"Cn1ccnc1S [Methimazole (Tapazole, Northyx)]",-0.306 ± 1.3,-0.337 ± 0.53,-0.424,0.152,-1.45,-0.575
Cc1cccc(Nc2ccncc2S(=O)(=O)NC(=O)NC(C)C)c1 [Torsemide (Demadex)],0.0169 ± 0.17,0.418 ± 0.1,-0.437,-0.984,0.996,0.578
O=C1N=C(O)NC1(c1ccccc1)c1ccccc1 [Phenytoin sodium (Dilantin)],-1.05 ± 0.86,-0.268 ± 1,-1.27,0.393,-0.924,-0.23
CC(C)NCC(O)c1ccc(NS(C)(=O)=O)cc1 (stereo unspecified) [Sotalol (Betapace)],0.159 ± 0.11,-0.225 ± 0.47,-0.261,-0.251,0.324,-0.131
CC(=O)OCC(=O)[C@@]1(O)CC[C@H]2[C@@H]3CCC4=CC(=O)C=C[C@]4(C)[C@@]3(Cl)[C@@H](Cl)C[C@@]21C [Dichlorisone Acetate],1.4 ± 0.23,0.0959 ± 0.14,1.14,-0.308,1.9,-1.18
C[C@]12CCC(=O)C=C1[C@@H]1C[C@@H]1[C@H]1[C@@H]3[C@@H]4C[C@@H]4[C@@]4(CCC(=O)O4)[C@@]3(C)CC[C@@H]12 [Drospirenone],-0.134 ± 0.18,0.466 ± 0.12,0.244,-0.0474,0.658,0.747
CCn1cc(C(=O)O)c(=O)c2cc(F)c(N3CCNCC3)nc21 [Enoxacin (Penetrex)],-0.119 ± 0.7,-0.169 ± 0.2,-0.533,-0.114,-0.0401,-0.604
COC(=O)C1=C(C)NC(C)=C(C(=O)OC(C)C)C1c1cccc2nonc12 (stereo unspecified) [Isradipine (Dynacirc)],1.2 ± 0.83,0.293 ± 0.41,0.0796,0.125,-0.235,0.183
COc1cc(NC(C)CCCN)c2ncccc2c1 (stereo unspecified) [Primaquine Diphosphate],-0.446 ± 0.53,-0.229 ± 0.48,-1.12,0.233,-1.47,-0.0192
Nc1ccn([C@@H]2CS[C@H](CO)O2)c(=O)n1 [Lamivudine (Epivir)],-0.182 ± 0.16,0.528 ± 0.38,0.85,0.355,0.317,-0.175
Nc1nc(=O)[nH]cc1F [Flucytosine (Ancobon)],0.966 ± 1.6,0.784 ± 1.1,0.645,1.8,-0.394,0.228
Cc1ccc(NC(=O)c2ccc(CN3CCN(C)CC3)cc2)cc1Nc1nccc(-c2cccnc2)n1 [Imatinib (Gleevec)],0.222 ± 0.32,-0.409 ± 0.59,-0.175,0.416,0.516,0.0188
Nc1ccc(O)c(C(=O)O)c1 [Mesalamine (Lialda)],0.881 ± 0.26,0.0177 ± 0.025,1.23,-0.644,0.193,-0.0478
C[C@@H](Oc1cc(-c2cnn(C3CCNCC3)c2)cnc1N)c1c(Cl)ccc(F)c1Cl,-7.43 ± 0.42,-7.78 ± 5.1,-8.16,-11.3,-8.67,-14.8
O=P(O)(O)C(O)(Cc1cccnc1)P(=O)(O)O [Risedronic acid (Actonel)],0.099 ± 0.059,-0.758 ± 2.4,0.157,-1.71,0.323,0.301
CC1(C)[C@@H](OC(=O)CCC(=O)O)CC[C@]2(C)[C@H]3C(=O)C=C4[C@@H]5C[C@@](C)(C(=O)O)CC[C@]5(C)CC[C@@]4(C)[C@]3(C)CC[C@@H]12 [Carbenoxolone Sodium],0.427 ± 0.34,0.351 ± 0.42,1.08,1.69,0.00923,-1.11
CCCNC(=O)NS(=O)(=O)c1ccc(Cl)cc1 [Chlorpropamide],0.117 ± 0.16,-0.212 ± 0.99,1.18,0.584,0.504,0.256
C#Cc1cccc(Nc2ncnc3cc(OCCOC)c(OCCO)cc23)c1 [OSI-420 (Desmethyl Erlotinib)],-1.25 ± 0.087,-3.17 ± 0.92,-0.294,-3.25,-0.363,-2.62
CNCC[C@@H](Oc1ccccc1C)c1ccccc1 [Atomoxetine HCl],-1.25 ± 0.94,-0.191 ± 0.65,-0.934,-0.985,-0.457,-0.108
